Measurements taken from PubChem BioAssay AID602393 (Broad Institute, 2012).
Hit rate of the full screen: of about 350,000 compounds, about 7,000 (2%) were called active. Inconclusive means that the source gave no clear call. Such entries were picked first, then a sample of the others. Rule as the data show it: active = activation above about 40%; inconclusive = no clear call, values can overlap the other calls; inactive = below that.

assay: raisers of Bmi1 knock-in reporter signal – mouse ES cells, Bmi1 luciferase knock-in, single point, esBAF inhibitor project, primary screen (AID 602393); details: 24 h, at 12.5 µM, active compounds read high, 100% = twice the neutral-well signal;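 also: 0% = median of the plate's neutral control wells and 100% = double that signal; a rise in the Bmi1 reporter signal indicates esBAF inhibition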

SMILES	reporter increase
CC(C)(C)C(=O)N1CCN(c2nc3ccc(Cl)cc3s2)CC1	inconclusive: 42.8%
COc1cc(/C=N/Nc2ccccn2)ccc1OCC(C)C	inconclusive: 43.2%
CN(C)c1ccc(C(CNC(=O)c2cccs2)N(C)C)cc1 (centres undefined)	inconclusive: 55.8%
CC(C)c1ccc(Nc2ncccc2C(=O)O)cc1	active: 60.3%
COc1ccc(C(=O)OCc2cc(=O)n3c(C)csc3n2)cc1F	active: 72.7%
O=C(N/N=C/c1ccccc1OC(F)F)NC1CCCCC1	inactive: -0.0145%
Cc1ccc(NC(=O)OCc2cncs2)cc1	inconclusive: 48.2%
CCn1nc(C)c(/C=N/NC(=O)Cc2ccc(Cl)cc2)c1C	active: 64.3%
O=C(NCCC1=CCCCC1)c1cnsn1	inconclusive: 42%
COc1ccc2cc(-c3ccon3)ccc2c1	inconclusive: 57.4%
CCCCCc1cc(=O)c2ccccc2o1	active: 50.2%
CC(=O)OCCCN1c2ccccc2Nc2nnc(-c3ccccc3)cc21	inconclusive: 37.2%
O=C(CC(F)(F)F)N1C[C@H]2[C@@H](c3ccccc31)[C@H](CO)N2C(=O)Cc1cccnc1	inactive: -1.13%
O=C(Nc1ccccn1)Nc1ccccc1[N+](=O)[O-]	inconclusive: 44.7%
Fc1ccc2cnc(-c3cccnc3)cc2c1	inactive: 31%
O=C(CNc1ccccc1)Nc1ccc(F)cc1	active: 51.7%
CS(=O)(=O)N1CCc2cc(C(=O)Nc3ccccc3Cl)ccc21	inconclusive: 45.8%
O=C(NCc1csc(-c2cccs2)n1)C1CCC1	inconclusive: 40.7%
Cc1ccc(NC(=O)c2ccc(Cl)nc2)cc1S(=O)(=O)N1CCOCC1	inactive: 0.751%
CCCNc1ccc(C(=O)OCC)cc1[N+](=O)[O-]	active: 51.9%
COc1cccc(Nc2nc(-c3cccnc3)cs2)c1	inconclusive: 60.7%
c1ccc2c(c1)ncn2CCCCOc1ccc2c(c1)CCC2	inactive: -27.9%
O=C(Nc1cccc(Cl)c1)NC1(C(=O)NCc2cccs2)CCCCC1	inactive: 7.34%
O=C(CCN1C(=O)NC2(CCCC2)C1=O)Nc1cccc(S(=O)(=O)N2CCOCC2)c1	inactive: -0.633%

SMILES	reporter increase
O=c1c(Br)c(N2CCCC2)cnn1-c1ccccc1	inactive: 25.9%
N#CC1=C(SCC(=O)c2ccccc2)NC2=C(C(=O)CCC2)C1c1ccco1 (centres undefined)	inconclusive: 43.8%
O=C1/C(=C/c2cccs2)CCC1C1CCCC1 (centres undefined)	inconclusive: 32%
Cc1ccc(C)c(OCC(=O)Nc2cccc(C(=O)O)c2)c1C	inconclusive: 46.5%
CN(C(=O)c1ccco1)c1nc(-c2ccccc2)cs1	active: 44.2%
O=C(NCc1cccs1)c1cc(-c2cccs2)on1	inconclusive: 40.1%
Nc1c(-c2ccccc2)cnn1-c1cccc(C(F)(F)F)c1	active: 54%
C[C@H](CO)N1C[C@H](C)[C@H](CN(C)C(=O)Nc2cccc3ccccc23)OCCCC[C@H](C)Oc2ccc(NC(=O)C3CCCCC3)cc2C1=O	inactive: 28.1%
Cc1cc(OCC(=O)N(C)Cc2ccccc2)ccc1Cl	inconclusive: 43.3%
FC(F)Sc1ccc(NC(=S)NCc2ccccc2)cc1	inactive: -1.68%
O=C(c1cc(COc2ccc(F)cc2F)on1)N1CC2C[C@@H]3CC1C[C@H](C2)C3	active: 55.2%
C/C(=N\N=c1/sc2ccccc2n1C)c1ccccn1	inconclusive: 35.4%
COCCCN1CN=C(Nc2nc3ccccc3o2)NC1	inconclusive: 40.9%
CCCOc1ccc(-c2nnc(N)s2)cc1	inconclusive: 40.3%
COc1ccccc1C(=O)CC(=O)c1ccccc1	inconclusive: 63.9%
C[C@H](CO)N1C[C@H](C)[C@H](CN(C)S(=O)(=O)c2ccc(Cl)cc2)Oc2c(NS(=O)(=O)c3ccc(F)cc3)cccc2C1=O	inactive: -2.52%
COc1cc(/C=N/NC(=O)CSc2ccccn2)ccc1OC(C)C	inconclusive: 34.3%
O=C(Nc1ccc2c(c1)oc1ccc(S(=O)(=O)N3CCCC3)cc12)C1CC1	inactive: 10.3%
O=C(NCCc1ccc(F)cc1)NC12CC3CC(CC(C3)C1)C2	active: 71.5%
N/C(=N\OC(=O)c1cccc(F)c1)c1ccccn1	inactive: -58.4%
CC(C)N(Cc1nc(-c2ccccc2)no1)C(=O)C1CCCCC1	inactive: -2.78%
O=C(CNC(=O)c1ccccc1F)N/N=C/c1ccc2c(c1)OCO2	inconclusive: 45.3%
C[C@H](CO)N1C[C@H](C)[C@@H](CN(C)CC2CC2)OCCCC[C@H](C)Oc2ccc(NC(=O)Nc3ccc4c(c3)OCO4)cc2C1=O	inactive: -2.33%
Fc1ccc(-c2nnc(Cc3ccc(Cl)cc3)o2)cc1	inconclusive: 41.2%

SMILES	reporter increase
CCCCCCCCS(=O)c1sc2nc3c(cc2c1N)CCCC3 (centres undefined)	inactive: 1.39%
Cc1ccc(C)c(NC(=S)Nc2ncccc2C)c1	inconclusive: 43.2%
CCCC(=O)Nc1ccc2c(c1)C(=O)N(C)C[C@H](OC)[C@H](C)CN(CC1CCCC1)[C@H](C)CO2	inactive: -4.37%
COc1ccc(-c2cc(CS(=O)(=O)c3ccccc3)on2)cc1	inconclusive: 44.1%
CCSc1nnc2c(n1)OC(C)(C)Nc1ccccc1-2	active: 48.3%
CCOc1ccc(C(=O)Nc2ccccc2OC(F)F)cc1	inconclusive: 36.5%
CN(C)c1ccc(/C=N/n2c(COc3ccccc3)n[nH]c2=S)cc1	inactive: -5.47%
Cc1ccccc1-c1nnc(SCc2ccccc2F)o1	inconclusive: 46.1%
CC1CCCC(C)N1C(=O)c1cc(-c2ccc(Cl)c(Cl)c2)on1 (centres undefined)	active: 79.7%
Nc1nc2ccccc2n1/N=C/c1ccc(-c2ccccc2)o1	inconclusive: 42.9%
C[C@@H]1CN([C@@H](C)CO)S(=O)(=O)c2ccc(Br)cc2O[C@H]1CN(C)C(=O)c1cnccn1	inactive: -1.48%
Cc1ccc(/C=C/C(=O)Nc2ccc(O)c3c(=O)cc(-c4ccccc4Cl)oc23)cc1	inconclusive: 42%
CC(C)NC(=O)Nc1ccc2c(c1)CC(=O)N([C@H](C)CO)C[C@H](C)[C@@H](CN(C)C(=O)Nc1ccccc1)O2	inactive: -1.49%
CSc1ccc(-c2nc(CN3CCCCC3c3cccnc3)c(C)o2)cc1 (centres undefined)	inconclusive: 44.3%
O=C(NCC1CCCO1)c1cc2c(s1)CCCC2 (centres undefined)	inconclusive: 41.3%
C[C@H]1CN([C@@H](C)CO)C(=O)Cc2cc(NC(=O)Cc3cn(C)c4ccccc34)ccc2O[C@@H]1CN(C)S(=O)(=O)c1ccc(Cl)cc1	inactive: 5.07%
Cc1ccc(-c2nnc(Cc3ccc(Cl)cc3)o2)cc1	inconclusive: 46.5%
COc1ccccc1NC(=O)C(=O)c1cn(CC(=O)N2CCCC2)c2ccccc12	active: 71.9%
COc1ccc(CCNC(=O)C2CCC(=O)N(CCc3ccc(OC)cc3)C2)cc1 (centres undefined)	inactive: 6.65%
COc1cccc(Nc2nc(N)nc(-c3oc4ccccc4c3C)n2)c1	active: 50.6%
CC(=O)Nc1cccc(C(=O)OCc2ccccc2)c1	inconclusive: 42.7%
CCc1cc2c(=O)n(C(C)C(=O)OC3CCCCC3)cnc2s1 (centres undefined)	inconclusive: 40.2%
O=C(Nc1ccccc1)C1=C[C@@H](c2ccc(Br)cc2)C[C@@H](OCCCCO)O1	active: 57.4%
Cc1nnsc1C(=O)Nc1cccc(Cl)c1	inactive: -5.58%

SMILES	reporter increase
Nc1ccccc1-c1ccc(Cl)cc1	inactive: 8.66%
CO[C@@H]1CN(C)C(=O)c2cc(NC(C)=O)ccc2OC[C@H](C)N(CCc2ccccc2)C[C@H]1C	inactive: -1.19%
Cc1cccc(N=C/C(C(=O)C(F)(F)F)=C(\O)c2ccco2)c1	inconclusive: 41.9%
Cc1cc(C(F)(F)F)n2nc(-c3cccs3)cc2n1	active: 64.4%
CCN(CC)c1ccc(NC(=O)c2ccc3c(c2)OCO3)cc1	inconclusive: 43.1%
Cc1cc(F)cc(C)c1Cn1cnc2c(cnn2C(C)(C)C)c1=O	inconclusive: 43.5%
Cc1ccccc1-c1nnc(SCC(=O)N2CCCC2)o1	inconclusive: 51.9%
CO[C@@H]1CN(C)C(=O)c2ccc(NC(=O)Cc3ccccc3)cc2OC[C@H](C)NC[C@@H]1C	inactive: 0.426%
O=[N+]([O-])c1ccccc1-c1ccc(C(=S)N2CCCCC2)o1	inconclusive: 65.1%
Cn1cc(/C=N/NC(=O)c2ccccc2O)c2ccccc21	inconclusive: 41.5%
Cc1ccc(Nc2cc(-n3cccn3)ncn2)c(C)c1	inconclusive: 64.5%
CCCc1cn(CC[C@H]2CC[C@H](NC(=O)C3CCC3)[C@H](CO)O2)nn1	inactive: 4.1%
Oc1ccccc1/C=N/NC(=S)NC1CC2CCC1C2 (centres undefined)	active: 65.7%
O=C(c1cc2ccccc2o1)c1cccs1	inconclusive: 47.9%
CSc1nccc(N2CCN(c3ccc(F)cc3)CC2)n1	inactive: 0.817%
Cc1ccccc1-c1cc2nc(NCCc3ccncc3)n(C)c(=O)c2s1	inactive: 11.3%
Cn1nc(-c2ccc(Cl)cc2)cc1NC(=O)Nc1ccccc1	inconclusive: 40.4%
CN(c1cccc(NS(=O)(=O)c2cccs2)c1)S(C)(=O)=O	inactive: 8.99%
N#CC1=C2N=C(N)c3ccccc3N2C2=C(C(=O)CCC2)C1c1ccc(F)cc1 (centres undefined)	inactive: 5.88%
C/C(N)=C(/C#N)C(=O)CSc1nnc(-c2ccc(OC(F)F)cc2)o1	inconclusive: 45.5%
CCC(C)(C)c1ccc(Oc2cccc(C(=O)O)c2)cc1	inconclusive: 42%
Cc1ccc(NC(=O)Nc2cccnc2)cc1Cl	inconclusive: 45.4%
